Laboratory results as given in paper PMC12056172 (Nature Communications, 2025).

Target: the molecule itself
Assay: SEC

B1: SNAP-tagged DAAM1 FH2-COOH (+MIC) (domain or fragment)
chain: not shown
modifications: SNAP tag labelled with a fluorophore (printed as DAAM1-SNAP-Alexa488 and as DAAM1-SNAP-Atto488)
B1: binds.
